This sample is rich in variants without activity.
B1: tRNA (parent)
chain: CUCUCGGUAGCCAAGUUGGUUUAAGGCGCAAGACUUUAAUUUAUCACUACGAAAUCUUGAGAUCGGGCGUUCGACUCGCCCCCGGGAGAUUUUUUCCUCGAGCAA

Variants of: B1
Assay: nonsense suppression (GFP-seq) (ratio to wild type); higher = more function; SUP4oc tRNA, yeast GFP reporter sort-seq
Method in brief: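 Sorted GFP/RFP bins of yeast were each Illumina-sequenced with a phred ≥30 cutoff; the cells held a genome-integrated ochre-suppressor tRNA variant from a library with ~3% random mutations, a galactose-driven GFP ochre reporter, and RFP. Culture was in raffinose/galactose medium containing 80 mg/L adenine. Nonsense suppression, termed GFPSEQ, is the median GFP/RFP of the bins weighted by each variant's estimated cell share per bin, relative to the unmutated parent tRNA, for variants reaching ≥100 reads and ≥30 cells.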

Nonsense suppression, ≤ 0.026:
CUCUCGGUAGCCAACUUGGUUUAGGGCGCAAGACUUUAAUUUAUCACUACGAAAUCUUGAGAUCGGGCGUUCGACUCGCCCCCGGGAGAUUUUUUCCUCGAGCAA [G15C A24G]
CUCUCGGUAGCCAACUUGGUUUAGGGCGCAAGACUUUAAUUUAUCACUACGAAAUCUUGAGAUCGGGCGUUAGACUCGCCCCCGGGAGAUUUUUUCCUCGAGCAA [G15C A24G C72A]
CUCUCGGUAGCCAACUUGGUUUAUGGCGCAAGACUUUAAUUUAUCACUACGAAAUCUUGAGAUGGGGCGUUCGACUCGCCCCCGGGAGGUUUUUUCCUCGAGCAA [G15C A24U C64G A89G]
CUCUCGGUAGCCAACUUGGUUUAUGGCGCAAGACUUUAAUUUAUCACUACGAAAUCUUGAGAUCUGGCGUUCGACUCGCCCCCGAGAGAUUUUUUCCUCGAGCAA [G15C A24U G65U G85A]
CUCUCGGUAGCCAACUUGGUUUAUGGCGCAAGACUUUAAUUUAUCACUACGAAAUCUGGAGAUCGGGCGUUCGACUCGCCCCCGGGAGAUUUUUUCCUCGAGCAA [G15C A24U U58G]
CUCUCGGUAGCCAACUUGGUUUAAGGCGCGAGACUUUAAUUUAUCACUACGAAAUCUUGAGAUCGGGCGUUCGACUCGCCCCCGGGAGAUUUUUUCCUCGAGCAA [G15C A30G]
CUCUCGGUAGCCAACUUGGUUUAAGGCGCGAGAGAUUAAUUUAUCACUACGAAAUCUUGAGAUCGGGCGUUCCACUCGCCCCCGGGAGAUUUUUUCCUCGAGCAA [G15C A30G C34G U35A G73C]
CUCUCGGUAGCCAACUUGGUUUAAGGCGCUAGACUUUAAUUUAUCACUACGAAAUCUUGAGAUCGGGCCUUCGGCUCGCCCCCGGGAGAUUUUUUCCUCGAGCAA [G15C A30U G69C A74G]
CUCUCGGUAGCCAACUUGGUUUAAGGCGCAGCACUUUAAUUUAUCACUACGAAAUCUUGAGAUCGGGCGUUCGACUCGCCCCCGGGAGCUUUUUUCCUCGAGCAA [G15C A31G G32C A89C]
CUCUCGGUAGCCAACUUGGUUUAAGGCGCAGGACUUUAAUUUAUCACUACGAAAUCCUGAGAACGGGCGGUCGACUCGCCCCCGAGAGAUUUUUUCCUCGAGCAA [G15C A31G U57C U63A U70G G85A]
CUCUCGGUAGCCAACUUGGUUUAAGGCGCAAGGCUUUAAUUUAUCACUACGAAAUCUUGAGAUCGGGCGUUCGACUCGCCCCCGGGAGAUUUUUUCCUCGAGCAA [G15C A33G]
CUCUCGGUAGCCAACUUGGUUUAAGGCGCAAGACUUUAAUUUAUCACUACGAAAUCUUGAGGUCGGGCGUUCGACUCGCUCCCGGGAGAUUUUUUCCUCGAGCAA [G15C A62G C80U]
CUCUCGGUAGCCAACUUGGUUUAAGGCGCAAGACUUUAAUUUAUCACUACGAAAUCUUGAGAUCGGGCGUUCGUCUCGCCCCCGGGAGAUUUUUUCCUCGAGCAA [G15C A74U]
CUCUCGGUAGCCAACUUGGUUUAAGGCGAAAGACUUUAAUUUAUCACUACGAAAUCUUGAGAUCGGGCGUUCGACUCGCCCCCGGGAGAUUUUUUCCUCGAGCAA [G15C C29A]
CUCUCGGUAGCCAACUUGGUUUAAGGCGUAAGACUUUAAUUUAUCACUACGAAUUCUGGAGAUCGGGCGUUCGACUCGCCCCCGGGAGAUUUUUUCCUCGAGCAA [G15C C29U A54U U58G]
CUCUCGGUAGCCAACUUGGUUUAAGGCGUAAGACUUUAAUUUAUCACUACGAAAUCUUGAGAUCGGGCGUUCGACUCGCCCCCGGAAGAUUUUUUCCUCGAGCAA [G15C C29U G86A]
CUCUCGGUAGCCAACUUGGUUUAAGGCGCAAGAAUUUAAUUUAUCACUACGAAAUCUUGAGAUCGGUCGUUCGACUCGCCCGCGGGAGAUUUUUUCCUCGAGCAA [G15C C34A G67U C82G]
CUCUCGGUAGCCAACUUGGUUUAAGGCGCAAGACUUUAAUUUAUCACUACGAAAUUUUGAGAUCGGGCGUUCGACUCGCCCCCGGGAGAUUUUUUCCUCGAGCAA [G15C C56U]
CUCUCGGUAGCCAACUUGGUUUAAGGCGCAAGACUUUAAUUUAUCACUACGAAAUUUUGAGAUCGGGCGUUCGACUCGCCCCCCGGAGAUUUUUUCCUCGAGCAA [G15C C56U G84C]
CUCUCGGUAGCCAACUUGGUUUAAGGCGCAAGACUUUAAUUUAUCACUACGAAAUCUUGAGAUAGGGCGUUCGAGUCGCCCCCGGGAGAUUUUUUCCUCGAGCAA [G15C C64A C75G]
CUCUCGGUAGCCAACUUGGUUUAAGGCGCAAGACUUUAAUUUAUCACUACGAAAUCUUGAGAUUUGGCGUUCGACUCGCCCCCGGUAGAUUUUUUCCUCGAGCAA [G15C C64U G65U G86U]
CUCUCGGUAGCCAACUUGGUUUAAGGCGCAAGACUUUAAUUUAUCACUACGAAAUCUUGAGAUCGGGAGUUCGACUCGCCCCCGGGAGAUUUUUUCCUCGAGCAA [G15C C68A]
CUCUCGGUAGCCAACUUGGUUUAAGGCGCAAGACUUUAAUUUAUCACUACGAAAUCUUGAGAUCGGGAGUUCGACUCCCCCCCGGGGGAUUUUUUCCUCGAGCAA [G15C C68A G78C A87G]
CUCUCGGUAGCCAACUUGGUUUAAGGCGCAAGACUUUAAUUUAUCACUACGAAAUCUUGAGAUCGGGUGUUCGACUCGCCCCCGGGAGAUUUUUUCCUCGAGCAA [G15C C68U]
CUCUCGGUAGCCAACUUGGUUUAAGGCGCAAGACUUUAAUUUAUCACUACGAAAUCUUGAGAUCGGGCGUUCGACUGGCCCCCGGGAGAUUUUUUCCUCGAGCAA [G15C C77G]
CUCUCGGUAGCCAACUUGGUUUAAGGCGCAAGACUUUAAUUUAUCACUACGAAAUCUUGAGAUCGGGCGUUCGACUCGCACCCGGGAGUUUUUUUCCUCGAGCAA [G15C C80A A89U]
CUCUCGGUAGCCAACUUGGUUUAAGGCGCAAGACUUUAAUUUAUCACUACGAAAUCUUGAGAUCGGGCGUUCGACUCGCACCCGGCAGAUUUUUUCCUCGAGCAA [G15C C80A G86C]
CUCUCGGUAGCCAACUUGGUUUAAGGCGCAAGACUUUAAUUUAUCACUACGAAAUCUUGAGAUCGGGCGUUCGACUCGCCCCAAGGAGAUUUUUUCCUCGAGCAA [G15C C83A G84A]
CUCUCGGUAGCCAACUUUGUUUAAGGCGCAAGACUUUAAUUUAUCACUACGAAAUCUUGAGAUCGGGCGUUCGACUCGCCCCCGGGAGAUUUUUUCCUCGAGCAA [G15C G18U]
CUCUCGGUAGCCAACUUUGUUUAAGGCGCCAGACUUUAAUUUAUCACUACGAAAUCUUGAGAUCGGGCCUUCGACUCGCCCCCGGGAGAUUUUUUCCUCGAGCAA [G15C G18U A30C G69C]
CUCUCGGUAGCCAACUUUGUUUAAGGCGCAAGACUUUAAUUUAUCACUACGAAAUCUUGAGAUCGGGCGUUCGACGCGCCCCCGGGGGAUUUUUUCCUCGAGCAA [G15C G18U U76G A87G]
CUCUCGGUAGCCAACUUGCUUUAAGGCGCAAGACUUUAAUUUAUCACUACGAAAUCUGGAGAUCGGGCGUUCGACUCGCCCCCGGGAGAUUUUUUCCUCGAGCAA [G15C G19C U58G]
CUCUCGGUAGCCAACUUGGUUUAAUGCGCAAGACUUUAAUUUAUCACUACGAAAUCUUGCGAUCGGGCGUUCGACUCGCCCCCGGGCGAUUUUUUCCUCGAGCAA [G15C G25U A60C A87C]
CUCUCGGUAGCCAACUUGGUUUAAGGCGCAAGACUUUAAUUUAUCACUACGAAAUCUUGAAAUCGGGCGUUCGACUCGCCCCCGGGAGAUUUUUUCCUCGAGCAA [G15C G61A]
CUCUCGGUAGCCAACUUGGUUUAAGGCGCAAGACUUUAAUUUAUCACUACGAAAUCUUGAGAUCAGGCGUUCGACUCGCCCCCGGGAGAUUUUUUCCUCGAGCAA [G15C G65A]
CUCUCGGUAGCCAACUUGGUUUAAGGCGCAAGACUUUAAUUUAUCACUACGAAAUCUUGAGAUCAGGCGUUCGACUCGCCCCCGGCAGAUUUUUUCCUCGAGCAA [G15C G65A G86C]
CUCUCGGUAGCCAACUUGGUUUAAGGCGCAAGACUUUAAUUUAUCACUACGAAAUCUUGAGAUCGGCCGUUCGACUCGCCCCCGGGAUAUUUUUUCCUCGAGCAA [G15C G67C G88U]
CUCUCGGUAGCCAACUUGGUUUAAGGCGCAAGACUUUAAUUUAUCACUACGAAAUCUUGAGAUCGGGCGUUCGACUCGCCCCCUGGAGAUUUUUUCCUCGAGCAA [G15C G84U]
CUCUCGGUAGCCAACAUGGUUUAAGGCGCAAGACUUUAAUUUAUCACUACGAAAUCUUGAGAUCGGGCGUUCGACUCGCCCCCGGGAGAUUUUUUCCUCGAGCAA [G15C U16A]
CUCUCGGUAGCCAACAUGGUUAACGGCGCAAGACUUUAAUUUAUCACUACGAAAUCUUGAGAUCGGGCGUUCGACUCGCCCCCGGGAGAUUUUUUCCUCGAGCAA [G15C U16A U22A A24C]
CUCUCGGUAGCCAACCUGGUUUAAGGCGCAAGACUUUAAUUUAUCACUACGAAAUCUUGAGAUCGGGCGUUCGAAUCGCCCCCGGGAGAUUUUUUCCUCGAGCAA [G15C U16C C75A]
CUCUCGGUAGCCAACUAGGUUUAAGGCGCAAGACUUUAAUUUAUCACUACGAAAUCUUGAGAUCGGGCGUUCGACUCGCCCCCGGGAGAUUUUUUCCUCGAGCAA [G15C U17A]
CUCUCGGUAGCCAACUAGGUUUAAGGCCCAAGACUUUAAUUUAUCACUACGAAAUCUUGAGAUCGGGCGUCCGACACGCCCCCGGGAGAUUUUUUCCUCGAGCAA [G15C U17A G28C U71C U76A]
CUCUCGGUAGCCAACUGGCUUUAAUGCGCAAGACUUUAAUUUAUCACUACGAAAUCUUGAGAUCGGGCGUUCGACUCGCCCCCGGGAGAUUUUUUCCUCGAGCAA [G15C U17G G19C G25U]
CUCUCGGUAGCCAACUUGGAUUAAGGCGCAAGACUUUAAUUUAUCACUACGAAAUCUUGAGAUCCGGCGUUCGACUCGCCCCCGGGAGAUUUUUUCCUCGAGCAA [G15C U20A G65C]
CUCUCGGUAGCCAACUUGGCUUAAGGCGCAAGUCUUUAAUUUAUCACUACGAAAUCUUGAGAUCGGGCGUUCGACUCGCCCCCGGGAGAUUUUUUCCUCGAGCAA [G15C U20C A33U]
CUCUCGGUAGCCAACUUGGUCUAAGGCGCAAGACUUUAAUUUAUCACUACGAAAUCUUGAGAUCAGGCGUUCGACUCGCCCCCGGGAGGUUUUUUCCUCGAGCAA [G15C U21C G65A A89G]
CUCUCGGUAGCCAACUUGGUGUAAGGCGCAAGACUUUAAUUUAUCACUACGAAAUCUUGAGAUCGGGCGUUCGACUCGCCCCCGGGAGAUUUUUUCCUCGAGCAA [G15C U21G]
CUCUCGGUAGCCAACUUGGUGUAAGGCGCAAGACUUUAAUUUAUCACUACGAAAUCUUGAGAUCGGGCGAUCGACUCGCCCCCGGGAGAUUUUUUCCUCGAGCAA [G15C U21G U70A]
CUCUCGGUAGCCAACUUGGUUAAAGGCGCAGGACUUUAAUUUAUCACUACGAACUCUUGAGAUCGGGCGUUCGACUCGCCCCCGGGAGAUUUUUUCCUCGAGCAA [G15C U22A A31G A54C]
CUCUCGGUAGCCAACUUGGUUCAAGGCCCAAGACUUUAAUUUAUCACUACGAAAUCUUGAGAUCGGGCGUUCGACUCGCCCCCGGGAGAUUUUUUCCUCGAGCAA [G15C U22C G28C]
CUCUCGGUAGCCAACUUGGUUGAAGGCGCCAGACUUUAAUUUAUCACUACGAAAUCUUGAGAUCGGGCGUUCGACUCGCCCCCCGGAGAUUUUUUCCUCGAGCAA [G15C U22G A30C G84C]
CUCUCGGUAGCCAACUUGGUUGAAGGCGCAAGACUUUAAUUUAUCACUACGAAAUCUUGUGAUCGGGCGUUCGACUCGCCGCCGGGAGAUUUUUUCCUCGAGCAA [G15C U22G A60U C81G]
CUCUCGGUAGCCAACUUGGUUUAAGGCGCAAGACUUUAAUUUAUCACUACGAAACCUUGAGAUCGGGCGUUCGACUCGCCCCCGGGAGAUUUUUUCCUCGAGCAA [G15C U55C]

— the RNAGym collection of RNA variant scans (doi:10.1101/gad.245936.114)
